In PMC12136788 one finds binding signal data, which are given here for 22 molecules.

The chains are these.
T1: UNK ZnF1-6 (called full-length) (human, UniProt Q9C0B0 30-357)
T1 sequence: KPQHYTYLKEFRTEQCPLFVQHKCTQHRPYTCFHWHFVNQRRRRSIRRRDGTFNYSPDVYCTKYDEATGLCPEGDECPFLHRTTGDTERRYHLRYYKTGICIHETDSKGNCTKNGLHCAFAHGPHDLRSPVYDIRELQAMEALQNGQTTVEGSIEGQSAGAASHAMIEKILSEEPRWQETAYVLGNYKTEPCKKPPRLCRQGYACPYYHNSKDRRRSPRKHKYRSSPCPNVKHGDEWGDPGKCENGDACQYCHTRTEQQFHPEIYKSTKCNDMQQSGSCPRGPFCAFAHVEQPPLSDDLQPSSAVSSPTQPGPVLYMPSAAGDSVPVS

B1: chr15:101302471:101305355:-|three_prime_utr|ENSG00000140479|control|control|control (ssRNA)
RNA: GGGAGUUCUACAGUCCGACGAUCACGGAAGCUCUUCAUUCAGUUCUGCUGCCGCACGUGCCUCCUGGCCGGGUAAGGGUGCCUAGCUGCCCACAGAGGGCAGGCACUCCCAUCCAUCCAUCCGUCCACCUUCCUCCAGACUGUCAACAGAGGAUUGAGCAUCA
B2: chr22:41636480:41636706:+|CDS|ENSG00000196419|unk|total|mutant (ssRNA)
RNA: GGGAGUUCUACAGUCCGACGAUCAUGGGCCACGGAUCUGACUACUCACUCAGUGAAGUGCUGUGGGUCUGUGCCAACCUCUUCCGUGAUGUCCAAUUCAAGAUGAGUCAUAAGAGGAUCAUGCUGUUCACCAAUGAAGACAACCAACAGAGGAUUGAGCAUCA
B3: chr14:69053859:69055611:-|CDS|ENSG00000139990|control|control|control (ssRNA)
RNA: GGGAGUUCUACAGUCCGACGAUCUGUGAGACCCCCAAUGCUGGAACAAGAGAGGACCCCACUGACACCCCAGCCACAGAUAGUAGCAGGGCUGUUCAUGGCCACAGUGGCCUCAAAAGGCAACGAAUUGAAUUGGAAGAUACACAACAGAGGAUUGAGCAUCA
B4: chr15:69271217:69271318:+|3pUTR|ENSG00000138604|msi1|total|mutant (ssRNA)
RNA: GGGAGUUCUACAGUCCGACGAUCGCAACAGCAAGUUGAUUUCUUGUGAUCCCAGAAUUUUCUAAGAGGAUGAGUUGAAUCUACCGCAGCAUUGUCAGUACAGACCAGUGGUUCUCAAACUUUAAAAUGCCUCAGCAUCACUUGCAACAGAGGAUUGAGCAUCA
B5: chr1:154584646:154584747:-|3pUTR|ENSG00000160710|unk|total|mutant (ssRNA)
RNA: GGGAGUUCUACAGUCCGACGAUCAUGCUCCAGUGACAGAUGGAUCCGGGUGUGUCAUACCCGGGUGUGAGAGAGGCCGGUCGCCGCAUUCCUCAUCACAUGGUCAGGGGAUUUUUUUUUCUCCUUUUUUUUUCUUUUUAAGCCCAACAGAGGAUUGAGCAUCA
B6: chr6:35869508:35869609:-|CDS|ENSG00000096063|unk|FALSE|unique (ssRNA)
RNA: GGGAGUUCUACAGUCCGACGAUCGACACCAUGGUGUGCCAGUCUUCCUCAACUGUAGGUCAGUCAUUCAGUGAACAACACAUUAGCCAACUUCAAGAAAGCAUUCGGGCAGAGAUACCCUGUGAAGAUGAACAAGAGCAAGAACAACAGAGGAUUGAGCAUCA
B7: chr1:184691659:184691688:-|3pUTR|ENSG00000116406|msi1_unk|total|mutant (ssRNA)
RNA: GGGAGUUCUACAGUCCGACGAUCCUCCAACGUUGUAAUUACAACUCUACAUUCAUUUACUUACUUGACAUACUGCCACAAAGCCGUUUUUGAGUUCAUUAAAAAUUCCAAAGGCAUCCGUUGUUUUUUUUUUUUUCCGUGUUUCAACAGAGGAUUGAGCAUCA
B8: chr7:66152395:66152486:+|3pUTR|ENSG00000241258|msi1_unk|FALSE|overlapping (ssRNA)
RNA: GGGAGUUCUACAGUCCGACGAUCCGUUGAGAGGAUUGUUUAUUUGAUUUUUAUCCUCAUCCCAGCAGGCCUGGCUUUGUGGUUAGUUGGGUACAUCACAAAAAUAAGUUAAAAAGAAAUAUUUGUGCCUUGGGGAGAAGAAACCAACAGAGGAUUGAGCAUCA
B9: chr17:51192749:51193016:-|CDS|ENSG00000011258|control|control|control (ssRNA)
RNA: GGGAGUUCUACAGUCCGACGAUCUGGAUGGGAAGAAGAGUAUGAUCAGUGGGUAGACUGUGAGUCACCUGACCUCUAUCCUGUAGGGUGGUGUCAGUUAACUGGAUAUCAACUACAGCCUCCAGCAUCACAGUGUAAGUUGGUCAACAGAGGAUUGAGCAUCA
B10: chr7:151349087:151349194:+|CDS|ENSG00000013374|unk|FALSE|unique (ssRNA)
RNA: GGGAGUUCUACAGUCCGACGAUCCCUUGCUAAGCAGUACUCUGACAGACUAGAAUGCUGUGAAAAUGAAGUAGAAAAGGUAAUAGAAGAAAUACGUUGCAAGGCAAUUGAGCGUGGAACAGGAAAUGACAAUUAUAGAACAACCAACAGAGGAUUGAGCAUCA
B11: chr1:42926584:42926685:-|3pUTR|ENSG00000117394|msi1|FALSE|unique (ssRNA)
RNA: GGGAGUUCUACAGUCCGACGAUCGCCUGAGGGUGGAGACUAAGCCCUGUCGAGACACUUGCCUUCUUCACCCAGCUAAUCUGUAGGGCUGGACCUAUGUCCUAAGGACACACUAAUCGAACUAUGAACUACAAAGCUUCUAUCCAACAGAGGAUUGAGCAUCA
B12: chr6:158785413:158785514:-|CDS|ENSG00000092820|msi1|FALSE|unique (ssRNA)
RNA: GGGAGUUCUACAGUCCGACGAUCGAGCUCAUCCAGGACAUCACCCAGAAACUUUUCUUCCUCCAAGUGAAGGAAGGAAUCCUUAGCGAUGAGAUCUACUGCCCCCCUGAGACUGCCGUGCUCUUGGGGUCCUACGCUGUGCAGCAACAGAGGAUUGAGCAUCA
B13: chr17:35009752:35009853:-|3pUTR|ENSG00000092871|msi1|FALSE|unique (ssRNA)
RNA: GGGAGUUCUACAGUCCGACGAUCAUUCAGCUACUCAGUUCCUCUGUAAAACAGGUCUAUGUAUGUGCAAUUCAGCUAAGAUCUAGCAGUAACUUAAGGGCAGAAGCUGGCUCUCUACUUACAACCUGCUUUCUCUGCUGAAGCCAACAGAGGAUUGAGCAUCA
B14: chr10:26980575:26980839:-|three_prime_utr|ENSG00000107890|control|control|control (ssRNA)
RNA: GGGAGUUCUACAGUCCGACGAUCGCUUACUCCGACCUCUCUGAACUUCCUGGACCAGAUCUGUUUCCUCUGCCUGCAUGCUCUAGCCUACCAUCUUCCUCUCCUUGUCUGCUACUCACUCAACAGAAGGCAACAGGGUGGUCUCAACAGAGGAUUGAGCAUCA
B15: chr2:176131361:176131462:+|CDS|ENSG00000175879|unk|FALSE|unique (ssRNA)
RNA: GGGAGUUCUACAGUCCGACGAUCGGAAUUUCUUUUUAACCCCUAUCUGACCAGGAAAAGAAGAAUCGAGGUUUCCCACGCCCUAGCCCUCACCGAGAGACAGGUAAAAAUCUGGUUCCAGAACAGGAGAAUGAAAUGGAAAAACAACAGAGGAUUGAGCAUCA
B16: chr3:120396629:120396730:-|3pUTR|ENSG00000163430|msi1|total|mutant (ssRNA)
RNA: GGGAGUUCUACAGUCCGACGAUCGCCUUCAUUUCCCGGAGUGCUUUAAGAGAAACUGUAAAUGGUGCUCUGGGGCUGGAGGCCCGUAAGGAAACUGCAUCACGAUUGAAAGAGGAACAGACCCAAAUCUGAACCUCUUUUGAGCAACAGAGGAUUGAGCAUCA
B17: chr8:23842656:23842757:-|3pUTR|ENSG00000159167|msi1|total|mutant (ssRNA)
RNA: GGGAGUUCUACAGUCCGACGAUCCCCCAAACUUAUGGACACUGCCUCCGCCUCUUGGAAAUCAGGCCGACCAUAUUCUAAGUCCGACUCUUCCCCUCCCUCCCACACUUCCCACCCCCAGGCAAGGCUGACUUCUCUGAAUCACAACAGAGGAUUGAGCAUCA
B18: chr10:63214216:63214317:-|CDS|ENSG00000171988|unk|total|mutant (ssRNA)
RNA: GGGAGUUCUACAGUCCGACGAUCUAAGCUGCAUAAGCGAAGUCCACCUCCAGAGACUAUAAAAUCUAAACUUAAUACUUCAGCCGAUACUCACAAGAUAAAAUCCAGCCCAUCACCUGAAGUUGUUAAACCCAAAAUAACUCACAACAGAGGAUUGAGCAUCA
B19: chr5:136975339:136975545:-|3pUTR|ENSG00000152377|msi1|total|mutant (ssRNA)
RNA: GGGAGUUCUACAGUCCGACGAUCAGAGCCCAUCAAAUCCUGAGUGUCAGUUUGUUGUCCCUAUUGCCGAUGAAACCGUGAUGCCGCAAAAACCCCGUAAAUUCUGAAUGCUUUUCCACGCCGACUUAUCUGGAAUGUGAACACCAACAGAGGAUUGAGCAUCA
B20: chr2:210678210:210678332:+|3pUTR|ENSG00000021826|unk|FALSE|unique (ssRNA)
RNA: GGGAGUUCUACAGUCCGACGAUCUUCAUCCAUUUACUAAUACUGUAUUUUUGGUGGACUAGGCUUGCCUAUGUGCUUAUGUGUAGCUUUUUACUUUUUAUGGUGCUGAUUAAUGGUGAUCAAGGUAGGAAAAGUUGCUGUUCUCAACAGAGGAUUGAGCAUCA
B21: chr9:72354534:72354635:-|3pUTR|ENSG00000107372|msi1|total|mutant (ssRNA)
RNA: GGGAGUUCUACAGUCCGACGAUCGUCCCCGUUUUUACUUUUAUUCUUAAAGCAUUCAGUUUUGCUUUCAAUUUUAUGUACCUCCGUUCUGAGUCCGACCUGCAGAUGUGUACAGACCGUUCAUAUUUAUGUAUUGCACAUAAUCAACAGAGGAUUGAGCAUCA
B22: chr15:63071210:63071313:+|3pUTR|ENSG00000140416|unk|FALSE|unique (ssRNA)
RNA: GGGAGUUCUACAGUCCGACGAUCCCUUAAAUGCAAUUUAUUUACUUUUACCACUGUCACAGAAACAUCCACAAGAUACCAGCUAGGUCAGGGGGUGGGGAAAACACAUACAAAAAGGCAAGCCCAUGUCAGGGCGAUCCUGGUCAACAGAGGAUUGAGCAUCA

This is one part of the list.

In this test the target is T1, UNK ZnF1-6 (called full-length). Put plainly: nsRBNS (natural sequence RNA bind-n-seq); RBNS binding buffer (assumed for nsRBNS): 25 mM Tris pH 7.5, 150 mM KCl, 3 mM MgCl2, 0.01% Triton X-100, 500 ug/ml BSA, 20 U/ml SUPERase-In, 4 C; UNK is unkempt and MSI1 is Musashi-1; names of the RNAs are library labels; protein concentration not given here; high values mean tight binding.
As to B1, the binding signal stood at 0.701 enrichment R.

On to B2, for which the binding signal was 0.517 enrichment R. For B3 the value was 0.823 enrichment R; for B4, 0.375 enrichment R.

B5 had a binding signal of 1.34 enrichment R.

B6 registered a binding signal of 0.535 enrichment R. For B7 the value was 0.805 enrichment R; for B8, 0.835 enrichment R; for B9, 0.594 enrichment R. The same measure for B10: 1.37 enrichment R; for B11: 0.589 enrichment R; for B12: 0.521 enrichment R.

Molecule B13 displayed a binding signal of 0.495 enrichment R.

With B14, the binding signal amounted to 0.798 enrichment R. The same measure for B15: 0.607 enrichment R.

B16 showed a binding signal of 0.319 enrichment R. The same measure for B17: 1.07 enrichment R; for B18: 0.3 enrichment R. The same measure for B19: 0.528 enrichment R. In turn, B20 gave a binding signal of 1.02 enrichment R. For B21 the value was 0.931 enrichment R; for B22, 1.79 enrichment R.
